# In ChEMBL document CHEMBL1201862, “PubChem BioAssay data set” (2004):
#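 Cultured in 96-well plates, cells were exposed to test compound for 48 hours across five concentrations. GI50 is the concentration that inhibits growth by half.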 The source made the active and inactive calls. No stated cut-off is given here; in the data, active = GI50 up to about 1.1 µM and inactive = higher.
# System: NCI-H322M
# Assay: growth of human tumour cells (NCI), 48 h
row,SMILES,GI50
1,CCC(=O)C1(c2ccccc2)CCN(C)CC1,inactive: > 100 µM
2,OC1(c2ccc3ccccc3c2)c2c(c3ccccc3c3ccccc23)C2=NCCN21 (configuration not stated),inactive: 6.5 µM
3,O=C(O)c1ccccc1NCn1c(=S)sc2ccccc21,inactive: > 100 µM
4,CC(C)C(C/C=C1\CC(CO)(COC(=O)CC(C(C)C)C(C)C)OC1=O)C(C)C (configuration not stated),inactive: 13.5 µM
5,Cc1nc(N)nc2ccccc12,inactive: > 100 µM
6,c1ccc(CCNc2ccccn2)nc1,inactive: > 100 µM
7,COc1cc(C2c3cc4c(cc3OC(NC3CCCCC3)C2C)OCO4)cc(OC)c1OC (configuration not stated),active: 0.662 µM
8,C=C1C(=O)O[C@@H]2C=C(C)C3=CC(=O)[C@](C)(C[C@H](OC(=O)/C(C)=C\C)[C@@H]12)O3,inactive: 3.51 µM
9,CC(=O)CC(OC(C)=O)C1=CCC2C(CC1C)OC(=O)C2C (configuration not stated),inactive: > 100 µM
10,N#C/C(=C\c1ccccc1)c1nc(-c2cc3ccccc3oc2=O)cs1,inactive: 87.3 µM
11,COC(=O)c1ccccc1CC1Cc2ccc3c(c2C1=O)CCCC3 (configuration not stated),inactive: > 100 µM
12,CN1C(=O)C2(C=CC(O)CC2)c2ccccc21 (configuration not stated),inactive: > 100 µM
13,CC(=O)OCC1OC(OCCCOP(=S)(OCCC#N)OCC2OC(n3ccc(N)nc3=O)C(OC(=O)c3ccccc3)C2OC(=O)c2ccccc2)C(OC(C)=O)C(OC(C)=O)C1OC(C)=O (configuration not stated),inactive: > 100 µM
14,CC(C)N/C(N)=N/C#N,inactive: > 100 µM
15,Cc1ccc(C)c(NC(=O)C(Cc2c[nH]c3ccccc23)NC(=O)OCc2ccccc2)c1 (configuration not stated),inactive: 15.6 µM
16,NNC(=O)N/N=C1\C(=O)N(c2ccc(Cl)c(Cl)c2)C(=O)C(=O)C1c1nc2ccccc2s1 (configuration not stated),inactive: > 100 µM
17,CN(C)c1ccc(/C=C(\NC(=O)c2ccccc2)C(=O)Nc2ccccc2C(=O)NN2C(=O)CSC2c2ccc(N(C)C)cc2)cc1 (configuration not stated),inactive: > 100 µM
18,CN1C(=O)C(=CN(C)c2ccccc2)C(=O)N(C)C1=O,inactive: > 100 µM
19,Cc1ccc2nc3n(c2c1)C(c1c(F)cccc1F)SC3 (configuration not stated),inactive: > 100 µM
20,CC1=NN(C(=O)CC(=O)Nc2ccccc2)C(=O)C1/N=N/c1ccc(C(=O)O)cc1 (configuration not stated),inactive: > 100 µM
21,O=C1CC2CC=C[C@H]3c4cc5c(cc4C(=O)N1C23)OCO5 (some centres not stated),inactive: > 50 µM

row,SMILES,GI50
1,O=C(COc1ccc(Cl)cc1)N1N=C(c2ccc([N+](=O)[O-])o2)CC1(O)c1ccccc1 (configuration not stated),inactive: 10.2 µM
2,[N-]=[N+]=NC1C(O)C(CO)OC1n1ccc(=O)[nH]c1=O (configuration not stated),inactive: > 875 µM
3,CNc1ncccc1Nc1cc(=O)n2c3cccnc3n(C)c2c1,inactive: > 100 µM
4,COc1ccc(-c2cc3ccccc3[nH]c2=O)cc1OC,inactive: > 100 µM
5,C1COC2SC3=C(SC(=C4SC5=C(SCCS5)S4)S3)SC2O1 (configuration not stated),inactive: > 100 µM
6,O=C(O)c1c2c(cc3c(=O)cc(-c4ccccc4)oc13)CCCC2,inactive: > 100 µM
7,C[C@H](CCC(=O)O[C@@H]1CC[C@@]2(C)C(CC[C@H]3[C@@H]4CC[C@H]([C@H](C)CCc5nc6ccccc6[nH]5)[C@@]4(C)CC[C@@H]32)C1)[C@H]1CC[C@H]2[C@@H]3CCC4C[C@H](O)CC[C@]4(C)[C@H]3CC[C@]12C (some centres not stated),inactive: > 100 µM
8,O=C1CCC2(O)c3ccccc3C2Cc2ccccc21 (configuration not stated),inactive: > 100 µM
9,CNS(=O)(=O)c1ccc2c(c1)/C(=C1/Nc3ccccc3C1=O)C(=O)N2,inactive: > 100 µM
10,C#C[C@]1(O)CC[C@H]2[C@@H]3CCC4=C/C(=N\OCCN5CCCC5)CC[C@]4(C)[C@H]3CC[C@@]21C,inactive: 14.3 µM
11,COC(=O)C1C(O)C(C)C(=O)C(C)/C=C\C=C(C)C(=O)Nc2c(C)c(OC(C)=O)c3c(c2O)C(=O)C(C)=C2OCOC(=C23)C(C)=CC(C)(O)C(O)C(C)C1O (configuration not stated),inactive: 71 µM
12,CCOC(=O)C1C(=O)c2cccc(OC)c2C2COC(=O)N12 (configuration not stated),inactive: > 100 µM
13,COc1cc([C@@H]2C3C(=O)c4ccccc4C3[C@@H](c3cc(OC)c(OC)c(OC)c3)C23Cc2ccccc2C3=O)cc(OC)c1OC (some centres not stated),inactive: 89.5 µM
14,COc1ccc(NC2=NCCO2)c2c1CCCC2,inactive: 37.6 µM
15,O=C(/C=C/c1cccc([N+](=O)[O-])c1)N1CCN(CCOC(c2ccccc2)c2ccccc2)CC1,inactive: > 100 µM
16,CN1C(Cl)=NS(=O)(=O)c2ccccc21,inactive: > 100 µM
17,CCOC(=O)c1[nH]c2cc(OC)c(OC)cc2c1CN(C)C,inactive: > 100 µM
18,CCC1(Br)C(=O)NC(=O)N(C2CC(O)C(CO)O2)C1N=[N+]=[N-] (configuration not stated),inactive: > 100 µM
19,C[C@H](CC[C@@H](O)C(C)(C)O)[C@H]1CC[C@@]2(C)[C@@H]3CC=C4[C@@H](CC[C@H](OC5OC(CO)C(O)C(O)C5O)C4(C)C)[C@]3(C)C(=O)C[C@]12C (some centres not stated),inactive: > 100 µM
20,NC(=O)c1c2c(n3ccccc13)C(=O)c1ccccc1C2=O,inactive: 76.7 µM
21,CN1C(=O)N/C(=C\c2ccc(S(=O)(=O)NN)cc2)C1=O,inactive: > 100 µM

row,SMILES,GI50
1,Cc1cc(C)n(-c2nc(-n3nc(C)cc3C)nc(-n3nc(C)cc3C)n2)n1,inactive: > 100 µM
2,O=c1[nH]c2cc(F)c(F)cc2nc1Cc1ccccc1,inactive: > 100 µM
3,O=c1/c(=C/c2ccc(-c3ccc(Cl)cc3Cl)o2)sc2n1[C@@H](c1ccc(Cl)cc1)C=C(c1cc(F)c(Cl)cc1Cl)N=2,inactive: 48 µM
4,CN1CCC(CN2c3ccccc3Sc3ccccc32)CC1,inactive: 14.8 µM
5,O=CCOCc1cc2c(cc1Br)OCO2,inactive: > 100 µM
6,O=C1C(Cl)N(c2c(Cl)cccc2Cl)C1c1c[nH]c2ccccc12 (configuration not stated),inactive: > 100 µM
7,CCN(CCC#N)C(=O)Nc1ccccc1,inactive: > 100 µM
8,COc1ccc2nc3n(c2c1)CCc1cc(OC)c(OC)cc1-3,inactive: 50.4 µM
9,CCOC(=O)C1=C(C)N(C)C(=S)NC1c1cccc(O)c1 (configuration not stated),inactive: 27.9 µM
10,CC1(C)CCc2ccc(OCCC(=O)O)cc2O1,inactive: > 100 µM
11,O=N/N=c1\o[n-][n+](CCc2ccccc2)c1Cc1/c(=N/N=O)o[n-][n+]1CCc1ccccc1,inactive: 30.3 µM
12,CCOC(=O)C1(Cc2ccccc2)CCN(C(=O)c2ccccc2)C2C1C2(Cl)Cl (configuration not stated),inactive: 28.1 µM
13,CC(=O)Oc1ccc2c(-c3ccccc3)c(Oc3ccc(Cl)cc3)c(=O)oc2c1,inactive: 15.2 µM
14,Cc1nc(-n2nc(-c3ccccc3)cc2-c2ccccc2)sc1C(=O)/C=C/c1ccc(/C=C/C(=O)c2sc(-n3nc(-c4ccccc4)cc3-c3ccccc3)nc2C)cc1,inactive: 24.3 µM
15,COC(=O)C(NC(=O)CNC(=O)CSc1nnc(COc2ccc(Cl)cc2)n1-c1ccccc1)C(C)C (configuration not stated),inactive: 19.2 µM
16,COC(=O)C(c1ccc(OC)cc1)N1C(=O)[C@@H](NC(=O)c2ccccc2)[C@H]1[C@@H](C)O (some centres not stated),inactive: > 100 µM
17,CC(C)=CCC/C(=C\CC/C(=C\CCc1ccoc1)C(=O)O)C(=O)O,inactive: > 100 µM
18,COc1cc(/C=C2/C(=O)N(C(=O)c3ccccc3O)N=C2C)ccc1O,inactive: 1.62 µM
19,COc1ccc(-c2nc(O)c3ccccc3n2)cc1,inactive: > 100 µM
20,c1ccc([P+](CCCCCC[P+](c2ccccc2)(c2ccccc2)c2ccccc2)(c2ccccc2)c2ccccc2)cc1,inactive: 24.8 µM
